Data as given in PubChem BioAssay AID651820 (National Center for Advancing Translational Sciences (NCATS), 2012).
Values joined by “and” are separate entries in the source; they are usually repeats but may differ in a detail not shown here. Equal entries are not always repeated. Among all 340,000 compounds or so, about 12,000 (3.5%) were called active. Inconclusive results, whose numbers are uncertain, are shown with a selection of clear calls. The call rests on the fitted dose curve; in most records, active means well fitted inhibition curve with a large enough effect; inconclusive means small, poorly fitted or top-dose-only effect, or another doubt; inactive means no such curve, though single readings can be large or run the other way. Where the call is inconclusive, the potency comes from a doubtful curve fit.

experiment: qHTS Assay for Inhibitors of Hepatitis C Virus (HCV); conditions: Huh7.5.1 HCVcc-Cre (HCVcc is cell-culture hepatitis C virus) infection, luciferase reporter, 44 h; activity change, negative = inhibition: at 41.8 µM (top of the series) unless noted
Summary of the method: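 Luciferase read-out (15 sec integration) after a 15 min room-temperature substrate step quantifies HCVcc-Cre infection. Cells, 1,000 per well, had compound added 4 h post-plating, then virus at ~0.5 moi, and were cultured 44 h.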
On the % scale 0 is the no-effect control and ±100 the full control effect; potency means the concentration at half of the fitted maximal effect; tags describe the fitted curve by direction and shape.

| Compound | Potency | activity change, negative = inhibition |
| --- | --- | --- |
| CC1CCN(c2oc(-c3ccccc3Cl)nc2C#N)CC1 | inconclusive: 7.08 µM [inhibitor, partial curve] |  |
| CN(C)c1ccc(NC(=O)c2cn(-c3ccccc3)nc2-c2cccs2)cc1 | inconclusive: 31.6 µM [inhibitor, single point] |  |
| CCOC(=O)c1c(C)[nH]c(C(=O)OCC(=O)N2c3ccccc3CC2C)c1C (stereo not drawn) | active: 10 µM |  |
| COc1ccc(S(=O)(=O)N2CCCCC2)cc1NC(=O)Cc1c[nH]c2ccccc12 | inconclusive: 12.6 µM [inhibitor, partial curve] |  |
| NC(=O)C(c1ccc(Br)cc1)c1ccc(C(=O)c2ccccc2)cc1 (stereo not drawn) | active: 10 µM |  |
| Cc1cc(C(=O)COC(=O)c2ccccc2O)c(C)n1CC1CCCO1 (stereo not drawn) | active: 11.2 µM |  |
| CN1CCN(C(=S)SCC(=O)Nc2ccc(Cl)cc2C(=O)c2ccccc2)CC1 | inconclusive: 31.6 µM [inhibitor, single point] |  |
| O=C(Nc1ccsc1C(=O)O)c1cccc(Oc2ccccc2)c1 | inconclusive: 5.62 µM [inhibitor, single point] |  |
| O=C(CSC1=NCCS1)Nc1nc2ccccc2s1 | inconclusive: 31.6 µM [inhibitor, single point] |  |
| CCc1ccc(OCCCC(=O)NCc2ccccc2)cc1 | inconclusive: 31.6 µM [inhibitor, single point] |  |
| COc1cc(OC)c(OC)cc1CN(C)CC1CCCN(CCc2ccccc2F)C1 (stereo not drawn) | active: 14.1 µM |  |
| O=C(COC(=O)c1ccccc1O)Nc1ccc(N2CCOCC2)cc1 | inactive |  |
| Cc1cc(Nc2ccc(Br)cc2)nc(-c2ccccc2O)n1 | active: 12.6 µM |  |
| O=C(N/N=C/C(Br)=C\c1ccccc1)c1ccc2nc[nH]c2c1 | inconclusive: 31.6 µM [inhibitor, single point] |  |
| COC(=O)c1ccc(C(=O)OC)c(NC(=O)C2CC2)c1 | inconclusive: 20 µM [inhibitor, single point] |  |
| Clc1ccccc1CO/N=C1\CCCc2nonc21 | inactive |  |
| CCOc1ccc2[nH]c3c(N4CCN(C(=O)c5ccco5)CC4)ncnc3c2c1 | inactive |  |
| C/C(=N\Nc1nc(N)cc(Cl)n1)c1ccc(F)cc1 | inconclusive: 31.6 µM [inhibitor, single point] |  |
| COc1ccccc1NC(=S)N/N=C1\CC(C)(C)Oc2ccc(O)cc21 | active: 10 µM |  |
| CCS(=O)(=O)Nc1ccc(C2=NN(C(C)=O)C(c3cccs3)C2)cc1 (stereo not drawn) | inconclusive: 3.16 µM [inhibitor, full curve, poor fit] |  |
| CSc1nc(NCC(C)C)c2c3c(sc2n1)CN(C)CC3 | inconclusive: 5.01 µM [inhibitor, single point] |  |
| COc1ccc(C2CC(c3ccncc3)=NN2c2ccc(S(N)(=O)=O)cc2)cc1 (stereo not drawn) | inconclusive: 31.6 µM [inhibitor, single point] |  |
| Cc1cc(N(CCO)CCO)ccc1C(c1ccc(N(CCO)CCO)cc1C)c1ccccc1Cl | inconclusive: 6.31 µM [inhibitor, partial curve] |  |

| Compound | Potency | activity change, negative = inhibition |
| --- | --- | --- |
| CSCCOC(=O)C1=C(C)NC(=O)NC1c1ccc2c(c1)OCO2 (stereo not drawn) | inactive |  |
| CC(=O)c1ccc(N2CCN(C(=O)/C=C/c3ccc(S(=O)(=O)NCc4ccco4)cc3)CC2)cc1 | inconclusive: 12.6 µM [inhibitor, partial curve] |  |
| CC(OC(=O)Cc1c[nH]c2ccccc12)C(=O)Nc1ccccc1[N+](=O)[O-] (stereo not drawn) | inconclusive: 10 µM [inhibitor, partial curve] |  |
| CN(C)C1(CNC(=O)C2CCC(=O)N(CCc3ccc(Cl)cc3)C2)CCCCC1 (stereo not drawn) | inconclusive: 31.6 µM [inhibitor, single point] |  |
| COc1ccccc1NC(=O)CN1CCN(CC(=O)Nc2ccc(F)cc2)CC1 | inconclusive: 11.2 µM [inhibitor, single point] |  |
| Nc1ccc(C(=O)OCc2nc3cc4ccccc4cc3[nH]2)cc1 | inactive |  |
| CCCN1CCc2c(sc(NC(=O)CCS(=O)(=O)c3ccccc3)c2C(=O)OC)C1 | inactive |  |
| COc1ccc([N+](=O)[O-])cc1N(CC(=O)NCCSc1ccc(C)cc1)S(C)(=O)=O | inconclusive: 5.62 µM [inhibitor, partial curve] |  |
| CCN1CCN(C(=O)N(Cc2ccc(Cl)cc2)S(=O)(=O)c2ccc(C)cc2)CC1 | inactive |  |
| CCC(=NCCc1c(C)[nH]c2ccc(C)cc12)C1=C(O)CC(c2ccccc2)CC1=O (stereo not drawn) | inconclusive: 0.891 µM [inhibitor, full curve, poor fit] |  |
| Cc1ccc(S(=O)(=O)Nc2ccccc2F)cc1C(=O)NNC(=O)c1ccccc1O | inconclusive: 31.6 µM [inhibitor, single point] |  |
| CN(Cc1ccccc1N1CCCC1)C(=O)c1cc2ccccc2o1 | inconclusive: 10 µM [inhibitor, single point] |  |
| COc1ccc(OC)c(Nc2ncnc3c2cnn3-c2cccc(C)c2)c1 | inconclusive: 2 µM [inhibitor, full curve] |  |
| COc1cc(C(=O)OCc2cc(=O)n3ccsc3n2)ccc1OC(C)C | inconclusive: 6.31 µM [inhibitor, full curve] |  |
| CCN(CC)C(=O)CSc1nc2ccccc2c(=O)n1CCC(=O)NCCc1ccc(OC)c(OC)c1 | inconclusive: 5.62 µM [inhibitor, single point] |  |
| Cc1cc2ccccc2n1CCNC(=O)COc1ccc2ccccc2c1 | inconclusive: 10 µM [inhibitor, partial curve] |  |
| Cc1ccc2c(CC(=O)NNC(=O)c3ccccc3O)coc2c1 |  | inconclusive: -40.6% [inhibitor] |
| Cc1csc(=O)n1CC(=O)OCC(=O)c1c(N)n(C)c(=O)n(C)c1=O |  | inconclusive: -113% [inhibitor] |
| CCCCCCCC(=O)N/N=C/c1ccc([N+](=O)[O-])o1 | inconclusive: 22.4 µM [inhibitor, single point] |  |
| CCOc1ccc2nc3cc(N=Nc4ccc(N)nc4N)ccc3c(N)c2c1 | active: 11.2 µM |  |
| CCOc1ccc2nc(NC(=O)CSc3nc4ccccc4c(=O)n3Cc3ccco3)sc2c1 | inconclusive: 35.5 µM [inhibitor, partial curve] and inconclusive: 5.62 µM [inhibitor, single point] |  |
| COc1ccc(-c2cc(=O)oc3c(C)c(OC(C)C(=O)Nc4ccc(CN5CCOCC5)cc4)ccc23)cc1 (stereo not drawn) | active: 12.6 µM |  |
| O=C(/C=C/c1ccc([N+](=O)[O-])s1)N1CCCCC1 | inconclusive: 31.6 µM [inhibitor, single point] |  |

| Compound | Potency | activity change, negative = inhibition |
| --- | --- | --- |
| Cc1c(C)c2ccc(OC(C)C(=O)N3CC[C@@]4(O)CCCC[C@H]4C3)cc2oc1=O (stereo partly drawn) | inconclusive: 2.24 µM [inhibitor, full curve] |  |
| CCOC(=O)[C@]12Cc3cc(Cl)ccc3[C@H]1N(Cc1ccccc1)C(=O)c1ccccc12 |  | inactive: -12.9% [at 8.37 µM] |
| Cc1ccc(NC(=O)CN(C)C(=O)C(Sc2ccccc2)c2ccccc2)cc1 (stereo not drawn) | inconclusive: 14.1 µM [inhibitor, partial curve] |  |
| CCN1CCN(C(c2cccs2)C(C)NC(=O)c2cccc(OC)c2OC)CC1 (stereo not drawn) | inconclusive: 31.6 µM [inhibitor, partial curve, poor fit] |  |
| Cn1c(CN2CCCCC2)nc2cc(NC(=O)c3cccs3)ccc21 | inconclusive: 7.94 µM [inhibitor, partial curve] |  |
| Nc1nccc(NCCSCc2ccccc2)n1 | inconclusive: 14.1 µM [inhibitor, single point] |  |
| Cc1ccc(C)c(NC(=O)CN(C)C(=O)c2ccc(S(=O)(=O)N3CCCCCC3)cc2)c1 | inactive |  |
| COc1cccc(C(=O)N2CCN(C(=O)COc3ccc4ccccc4c3)CC2)c1 | inconclusive: 3.16 µM [inhibitor, single point] |  |
| Cc1ccc(C)c(OCCn2c(=O)c3c(ncn3C3CCCC3)n(Cc3ccccc3)c2=O)c1 | inconclusive: 31.6 µM [inhibitor, single point] |  |
| COc1ccccc1NS(=O)(=O)c1cccc(C(=O)N/N=C/c2cn(-c3ccccc3)nc2-c2ccccc2)c1 | inconclusive: 7.08 µM [inhibitor, partial curve] |  |
| Cc1[nH]nc2c1C(c1ccccc1F)CC(=O)N2 (stereo not drawn) | inactive |  |
| CSc1ccccc1C(=O)Nc1nc2ccccc2[nH]1 | inactive |  |
| O=S(=O)(c1cccs1)N1CCN(CC(O)COC2CCCc3ccccc32)CC1 (stereo not drawn) | inactive |  |
| CCOc1ccccc1NC(=O)C1CC2CCCC(C1)C2=O (stereo not drawn) | inconclusive: 11.2 µM [inhibitor, single point] |  |
| Cc1ccc(Cn2nc(C(=O)Nc3ccc(Br)cc3)cc2C)cc1 | inconclusive: 7.94 µM [inhibitor, full curve, poor fit] |  |
| CCC(C)(C)c1ccc(OCCCC[n+]2cccc(C)c2)c(C(C)(C)CC)c1 | inconclusive: 11.2 µM [inhibitor, partial curve] |  |
| COc1cc(C(=O)Nc2ccccc2N2CCCCC2)cc(OC)c1OC | inconclusive: 11.2 µM [inhibitor, partial curve, poor fit] |  |
| CC1=C(C(=O)OC(C)(C)C)C(c2ccco2)C(C#N)=C(N)O1 (stereo not drawn) | inactive |  |
| COc1ccccc1N1CCN(C2CCCN(Cc3ccccc3OCCO)C2)CC1 (stereo not drawn) | inactive |  |
| C=C(C)COc1ccc(-c2ncnc(C(F)(F)F)c2-c2ccccc2)c(O)c1 | inconclusive: 10 µM [inhibitor, partial curve] |  |
| CCCCOc1ccc(-c2ncc(C(=O)OCC)c(N)n2)cc1 | inconclusive: 7.94 µM [inhibitor, partial curve] |  |
| CCC(CC)C(=O)N1N=C(c2ccc(NS(C)(=O)=O)cc2)CC1c1ccc(C)cc1 (stereo not drawn) | inconclusive: 31.6 µM [inhibitor, single point] |  |
